The source gives no read counts; variants with many changes may rest on few reads.

B1: CPEB3 Ribozyme (parent)
chain: UAACAGGGGGCCACAGCAGAAGCGUUCACGUCGCAGCCCCUGUCAGAUUCUGGUGAAUCUGCGAAUUCUGCUGUAUAUCUC

Variants of B1 are the subject of the data set. The data set is described as follows: self-cleavage, relative activity (ratio to wild type); higher = more cleavage; in vitro, sequencing. In a few lines: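 Relative activity compares each variant's cleaved/total read fraction with that of the unmutated ribozyme. To get these fractions, barcoded CPEB3 ribozyme libraries from rounds of error-prone PCR were transcribed with T7 RNA polymerase for 5 hours at 37°C and then given 15 min of DNase I treatment before EDTA was added. The RNAs were reverse transcribed with template switching and sequenced on Illumina, and DNA sequencing linked barcodes to variants. A minimum of 5 reads applied, and three batches were averaged.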
Turning to U41C A45G U54C, the self-cleavage came to 0.96.
As to C40U U43C U67C, the self-cleavage worked out at 0.52.
With U41A U54A U72A, the self-cleavage stood at 0.07.
On to U41A C44U U72A, for which the self-cleavage was 0.23.
With C40A A64G U66C, the self-cleavage is 0.08.
In the case of U41C A56G C62U U72C U76A it was 0.31.
On to C40U A57G U58A, for which the self-cleavage is 0.05.
To U41A G42U U43C U72C belongs 0.07.
Consider C40A A45G A56G U72C U80C, for which the self-cleavage amounted to 0.03.
In the case of U41A A57C U69C U74A, the self-cleavage came to 0.09.
In the case of C39U U43A U72C U74C U78C it was 0.96.
C40U A45U U60C: the self-cleavage was found to be 0.18.
With C40A A64G U80A, the self-cleavage amounted to 0.12.
To C39U G46A A64G belongs 0.14; to U41C A56G U78C, 0.95.
As for C40U C44U C68U U80A, the self-cleavage came out at 0.08.
Regarding C38G U41A A56U U80A, the self-cleavage was determined as 0.05.
In the case of U41A C62G U78A it was 0.06; in that of C40U C59A A65G, 0.1.
In the case of C38G G52C A75U, the self-cleavage stood at 0.15.
In the case of U41A U43A U72C U80A it was 0.19; in that of C39A A47G A57G, 0.08; in that of C39G A57U U67C, 0.05.
As to U41A A47G C62U, the self-cleavage was determined as 0.22.
To U41A A64G U72C belongs 0.11; to C38A U72A U78C, 0.18.
In the case of C37U U67C U76A A77C it was 0.1; in that of U41A A45C A75U U76C, 0.13.
In the case of C37U U49C G53U U66C U80C it was 0.1; in that of C40U A47G U51C, 0.23; in that of C40U U66C U72C, 0.16.
Regarding C39A U41C U67C, the self-cleavage was 0.14.
To U41A U51C U69A U74A belongs 0.09.
Turning to U41A A56G U72C, the self-cleavage was 0.36.
To C38U U49A C50A belongs 0.21; to C40U U49C U69A, 0.16; to U41A A57G A64U A65U G73A, 0.06.
To U41A U43C U54A belongs 0.43; to C38A U51A A56U, 0.13.
On to C38A A45U U67G U69A, for which the self-cleavage came out at 0.06.
U41A A45G U78G: the self-cleavage came to 0.28.
For the variant U41C A47G A56G A57G, the self-cleavage is 0.47.
To C38U U69C U78C belongs 0.56.
In the case of C40G U41A A75G it was 0.15; in that of C40U U43C U49G, 0.09; in that of C38G A64G A65G A75U, 0.17.
On to C38U U54A U78A, for which the self-cleavage is 0.67.
Regarding C38U U43A A56G U60A, the self-cleavage was found to be 0.29.
On to U41C A45G U48A U49C U72C A77G U78C, for which the self-cleavage was determined as 0.16.
Turning to C40U U74A C79A, the self-cleavage stood at 1.22.
To U41A A47U U54A A64G belongs 0.09.
In the case of U41A U48C U58C A64G it was 0.05; in that of U41A A45U U54G U80C, 0.43.
As to U41A U78C U80C, the self-cleavage is 0.2.
Turning to U41A A47G G53A U78C, the self-cleavage amounted to 0.06.
To C39U C40U U58A U69C belongs 0.18; to C39U U49C U72C, 0.26; to U41C A45G G55U, 0.78.
To U41A A45G A47G U69A belongs 0.33; to U41C A56G U72C, 0.91; to U41C A45U U60C, 0.38.
Consider U41C A47U A56G, for which the self-cleavage is 0.35.
C38U U41A U60C U80C: the self-cleavage stood at 0.2.
In the case of C40G A45G U51A U60C A77U, the self-cleavage came to 0.14.
In the case of C40U U48C U76C it was 0.2; in that of U41A A47G A57G U66C, 0.17.
In the case of U41A U43A U60A C71U it was 0.12; in that of C40U U51C A65G, 0.1; in that of U41A U72C U76A, 0.1.
In the case of U41A U51A A57G it was 0.21; in that of U41A A45G U54C U60A, 0.15; in that of U41A U67C A75G, 0.21.
Consider U41A U49A U72C, for which the self-cleavage is 0.44.
In the case of C40A U43G U60C A65G it was 0.26; in that of C40A C50A A56G A77G, 0.1.
As for C40U G52A A56G U69A U74C, the self-cleavage came to 0.27.
Take C40A U43C U60G C62A A75C: the self-cleavage worked out at 0.1.
To C40G G61A A65U belongs 0.13; to U41C A47G A77U, 1.16; to U41A U49C C68A, 0.16.
To C39U U51A A56U U60C belongs 0.1; to C38A G61U U80C, 0.23.
Consider U41A U58A U60A U66C U72C U80C, for which the self-cleavage came to 0.03.
With C40U U48C C59U C81U, the self-cleavage stood at 0.09.
On to U41C A56U A64U, for which the self-cleavage is 0.31.
As to C38U A56G U67C, the self-cleavage was 0.13.
To U41A U43C U49C belongs 0.13; to U41A A47C U51C U66A U78C, 0.05.
In the case of C37U U51A U69C it was 0.12; in that of U41C A56G C59U U72A, 0.06.
In the case of U41C A56G C59U U72C it was 0.25; in that of C39U U51C C62U, 0.34.
As for C39A A45G U74C, the self-cleavage was 0.55.
For the variant C40U U41C U67C C68G U78C, the self-cleavage came to 0.15.
Turning to U41A U49C A57U U60C, the self-cleavage stood at 0.16.
As for C37U U49C A64G U66A A77U, the self-cleavage was determined as 0.09.
In the case of C40U U58C G61A it was 0.16; in that of U41C A57G G61A A64U U67C U69A A77U, 0.29; in that of U41A A64U U72A, 0.08.
To C38U A57C U80C belongs 0.17; to C37U U54G A65G, 0.11; to U41A U51A U54C, 0.36.
In the case of C39G U58C A64U U66C it was 0.07.
As for C38G U43C U58C, the self-cleavage amounted to 0.15.
With C38G U58G U69C U80A, the self-cleavage was determined as 0.18.
To C40U A57U U72A belongs 0.15; to C38U A47C U49A A65G, 0.08.
Turning to U41A A45G U51C, the self-cleavage came to 0.09.
To C40A A45G U48C U58C A64G U67C U76C belongs 0.17; to U41C A56U U69A, 0.46; to U41C A45U U69C, 0.27.
Regarding U41A U43C G46U A64G U66C U72C, the self-cleavage was determined as 0.06.
In the case of C38U C68U U69A A75U it was 0.26; in that of C40U U41A U67C, 0.14; in that of U41A C44A A45G A65G U69C G73A, 0.07.
To U41A A47C U49C U69C A77G belongs 0; to C38U U41C U48C, 0.54; to C40A U41A A45C, 0.33.
On to C40U U43C A57G U58C, for which the self-cleavage amounted to 0.18.
As to U41C A45G U58C A65G, the self-cleavage worked out at 0.16.
Consider C40G A47G U51A G55A U60C, for which the self-cleavage worked out at 0.16.
For the variant U41A A45C A75U U78A, the self-cleavage came to 0.25.
To C38U U66C G70A belongs 0.19; to C39U C40U U60C C81A, 0.1.
To U41C A56G U80C belongs 0.71; to C38U A45U U54A U74A, 0.16; to C39A A45U G46C G53A A77G, 0.21.
To C40U U43C U60C U72C belongs 0.19; to C39A U41A U76G U78C, 0.25; to U41A U58A U66C, 0.44.
For the variant C38A C40U U80C, the self-cleavage turned out to be 0.29.
As for U41A A45G U54C, the self-cleavage worked out at 0.15.
In the case of U41C A56G A57U it was 0.26; in that of C39A U58A U69A, 0.33; in that of U41A U60C U76A, 0.07.
Turning to C38U U41C U51C A64G, the self-cleavage was 0.51.
Turning to C39U U48A U78A, the self-cleavage came to 0.16.
Regarding U41C A56U U60A U67C, the self-cleavage came out at 0.26.
As for C40U U43C G53U, the self-cleavage turned out to be 0.3.
As to C38U U54G C62U U76C, the self-cleavage amounted to 0.11.
As to C40U U58C A65G, the self-cleavage was 0.15.
In the case of U41A A45U G63A it was 0.13; in that of C40A U43C G53A, 0.14.
To C39U U49C A56G U69A belongs 0.34; to C38U U67A G70A, 0.41; to C40U C44A A57G, 0.1.
To U41C A45G U51C A65G belongs 0.2.
Regarding C40U U43C U48C U60C, the self-cleavage was determined as 0.08.
In the case of C37U U72C G73C it was 1.04.
In the case of C38A U51A U67A it was 0.13; in that of C38U G46A U66C A77U, 0.06; in that of U41C A47G U48C G52A U54C A64G, 0.14.
In the case of C40U A47G A64U U66A it was 0.14; in that of U41C A57G G73A, 1.23.
As to U41A U60C C81G, the self-cleavage is 0.19.
In the case of C38A U41A A64U C68U U72C it was 0.05; in that of C39A A47G U51A, 0.26.
On to C39A U49G U72C, for which the self-cleavage was 0.06.
To U41A U49C A56G U72A belongs 0.29.
In the case of U41C A57G A65C A75U, the self-cleavage stood at 0.15.
For the variant U41C A47G U49A A56G U74A, the self-cleavage came to 0.48.
To C37U U51A U69A U72C A75G belongs 0.11; to U41C A45G G61A A64C, 0.18; to C39U U60A U69A, 0.06.
To C38G U54C U67A belongs 0.15; to C40U U48C U60A U78C, 0.09; to C38U A47G C50A C62G U74A, 0.16.

These data come from the RNAGym collection of RNA variant scans (doi:10.1093/nar/gkz1192).
